Experimental data as given in PubChem BioAssay AID904 (National Center for Advancing Translational Sciences (NCATS), 2007).
Among all 55,000 compounds or so, about 530 (0.96%) were called active. The inconclusive results got no clear call from the source; some entries with a clear call stand among them for comparison. Calls follow the shape of the dose curve; as a rule, active = well fitted cell-killing curve with a large enough effect; inconclusive = small, poorly fitted or top-dose-only effect; inactive = no such curve, though single readings can be large or run the other way. A potency beside an inconclusive call is a rough fit, not a confirmed value.
Potency is read from the fitted curve at half-maximal effect; tags tell the direction and shape of the fitted curve.

Assay: qHTS Screen for Compounds that Selectively Target Cancer Cells with p53 Mutations: Cytotoxicity of p53 Null Cells at the Nonpermissive Temperature; also: nearly all actives have a fitted effect of over 50% in size;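 as to activity, negative = cell killing: 0% = DMSO only and -100% = full killing by 100 µM tamoxifen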
Conditions: H1299 p53-null (neo) cells, 39C, ATPlite viability, 24 h; activity, negative = cell killing: at 46.1 µM (top of the series)
Procedure, shortened: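 Temperature-shift cytotoxicity format: compound titrations on p53-null or A138V-expressing H1299 cells held 24 hr at 39C, cell ATP then measured, AC50 from Hill model.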
In the case of `CC(=O)c1ccc(N2CCN(S(=O)(=O)c3ccc(-c4coc(C)n4)cc3)CC2)cc1`, the “activity, negative = cell killing” value is reported as inactive: 7.01%.
For `Cc1ccc2oc(-c3ccc(NC(=O)CCC(=O)O)cc3)nc2c1`, the Potency was inconclusive: 15.8 µM [cytotoxic, partial curve].
With `Cc1ccc(CNC(=O)c2cc3c(=O)n(Cc4ccco4)ccc3nc2C)cc1` the Potency was inconclusive: 17.8 µM [cytotoxic, partial curve, poor fit].
With `Cc1nc2cc(-c3ccccc3)nn2c(C)c1CCC(=O)Nc1ccc(F)cc1F` the “activity, negative = cell killing” value was inactive: -0.892%.
With `COc1ccc(NC(=O)CCc2c(C)nn(-c3ccc(N4CCCCC4)nn3)c2C)cc1Cl` the Potency was inconclusive: 12.6 µM [cytotoxic, partial curve].
In the case of `COc1ccc(Cl)cc1S(=O)(=O)NCc1ccc2c(c1)CCN2C(=O)c1cccc(C)c1`, the Potency is reported as inconclusive: 3.16 µM [cytotoxic, partial curve, poor fit].
With `Cc1ccc(C(C)C)c(OCC(O)CN2CCN(c3ccccc3F)CC2)c1` (stereo not drawn) the Potency was inconclusive: 12.6 µM [cytotoxic, single point].
For `CCc1ccc(NC(=O)C2CCCN2S(=O)(=O)c2ccc3c(c2)CCCC(=O)N3)cc1` (stereo not drawn), the “activity, negative = cell killing” value was inactive: -5.91%.
In the case of `COc1ccc(CCNC(=O)c2ccc(Cn3c(=O)c4ccccc4n(Cc4cccc(F)c4)c3=O)cc2)cc1OC`, the Potency is reported as inconclusive: 14.1 µM [cytotoxic, single point].
For `CCOc1ccc(CNC(=O)c2nn(-c3ccc(OC)cc3)c(=O)c3c2c2ccccc2n3C)cc1`, the Potency was inconclusive: 15.8 µM [cytotoxic, single point].
With `Cc1ccc(CNC(=O)c2ccc(Cn3c(=O)c4ccccc4n(CC(=O)Nc4c(C)cc(C)cc4C)c3=O)cc2)cc1` the Potency was inconclusive: 7.94 µM [cytotoxic, partial curve].
For `Cc1cccc(NC(=O)c2cc(S(=O)(=O)N3CCCCCC3)cn2C)c1C`, the Potency was inconclusive: 0.158 µM [cytotoxic, full curve].
For `Cc1ccccc1CSc1ccc(-c2cccs2)nn1`, the Potency was inconclusive: 31.6 µM [cytotoxic, single point].
For `COc1cccc(-c2cn3ncsc3n2)c1`, the Potency was inconclusive: 12.6 µM [cytotoxic, partial curve].
With `Cc1ccc(Cc2cn3cc(-c4ccc(F)cc4)nc3s2)cc1` the Potency was inconclusive: 31.6 µM [cytotoxic, single point].
In the case of `CCC(=O)N1CCc2cc(CNS(=O)(=O)c3cccs3)ccc21`, the Potency is reported as inconclusive: 20 µM [cytotoxic, partial curve, poor fit].
For `CN(C(=O)c1ccc2c(Cl)c3c(nc2c1)CCC3)c1ccccc1F`, the Potency was inconclusive: 31.6 µM [cytotoxic, single point].
With `CCc1ccc(C2CC(=O)c3c([nH]c(C(=O)OCCOc4ccccc4)c3C)C2)cc1` (stereo not drawn) the Potency was inconclusive: 3.16 µM [cytotoxic, partial curve, poor fit].
With `COc1ccc(C(=O)Nc2nnc(C)s2)cc1` the Potency was inconclusive: 11.2 µM [cytotoxic, partial curve].
With `Cc1[nH]c2ccccc2c1C1(O)C(=O)N(Cc2ccccc2Cl)c2ccccc21` (stereo not drawn) the Potency was inconclusive: 0.794 µM [cytotoxic, full curve, poor fit].
With `CCN(Cc1ccccc1)C(=O)c1nn(-c2ccc(OC)cc2)c(=O)c2c1c1ccccc1n2C` the “activity, negative = cell killing” value was inactive: 4.41%.
With `COc1ccc(OC)c(NC(=O)c2cc(S(=O)(=O)NCCc3ccc(Cl)cc3)ccc2F)c1` the “activity, negative = cell killing” value was inactive: 3.27%.
With `COc1cccc(OC)c1C(=O)Nc1cccc(-c2cn3ccsc3n2)c1` the Potency was inconclusive: 31.6 µM [cytotoxic, partial curve].
In the case of `CCOc1ccc(NC(=O)c2ccc3c(c2)CCN3S(=O)(=O)c2ccc(Cl)cc2)cc1`, the “activity, negative = cell killing” value is reported as inactive: -7.49%.
For `Cc1cc(C)cc(NC(=O)CCCn2c3ccccc3c(=O)c3ccccc32)c1`, the Potency was inconclusive: 35.5 µM [cytotoxic, single point].
With `COc1ccc(C(=O)Nc2nc3c(s2)CCCC3)cc1Cl` the Potency was inconclusive: 14.1 µM [cytotoxic, partial curve, poor fit].
In the case of `O=C(Nc1ccc2nc(-c3cccnc3)[nH]c2c1)C1CCCCC1`, the Potency is reported as inconclusive: 10 µM [cytotoxic, partial curve].
In the case of `COc1ccc2nc(-c3cccc(N)c3)[nH]c2c1`, the Potency is reported as active: 8.91 µM.
In the case of `CCN(c1cccc(C)c1)S(=O)(=O)c1ccc2[nH]cc(C(=O)NCCCOC)c(=O)c2c1`, the “activity, negative = cell killing” value is reported as inactive: 18.2%.
For `Cc1ccc(C(=O)Nc2cccc(C(=O)O)c2)cc1S(=O)(=O)N1CCCC1`, the Potency was inconclusive: 15.8 µM [cytotoxic, single point].
For `O=C(Cn1ncc2c1-c1ccccc1OC2)N1CCN(c2ccccc2F)CC1`, the Potency was inconclusive: 0.501 µM [cytotoxic, partial curve].
For `Cc1nnc(NCc2ccccc2)c2c1nnn2Cc1ccccc1Cl`, the Potency was inconclusive: 0.005 µM [cytotoxic, full curve, poor fit].
In the case of `Cc1cc2ncn(CCCCOc3ccccc3)c2cc1C`, the Potency is reported as inconclusive: 35.5 µM [cytotoxic, single point].
With `CCCn1ccc2c(OCC(=O)NCc3ccc(C)cc3)cccc2c1=O` the “activity, negative = cell killing” value was inactive: -12%.
With `COc1ccccc1N1CCN(C(=O)c2nn(-c3ccc(C)cc3)c(=O)n(C)c2=O)CC1` the Potency was inconclusive: 0.178 µM [cytotoxic, full curve, poor fit].
In the case of `Cc1ccccc1-c1nc(CS(=O)(=O)CC(=O)NCC(C)c2ccccc2)c(C)o1` (stereo not drawn), the “activity, negative = cell killing” value is reported as inactive: -5.34%.
For `Cc1ccccc1CNC(=O)c1cnc2sc(N3CCOCC3)nn2c1=O`, the “activity, negative = cell killing” value was inactive: -11.5%.
With `CCN(CC)c1cc(C)c2cc(NC(=O)c3cccc(OC)c3)ccc2n1` the Potency was inconclusive: 25.1 µM [cytotoxic, single point].
In the case of `Cc1ccc(S(=O)(=O)N(CC(O)Cn2c3ccccc3c3ccccc32)c2cccc(C(N)=O)c2)cc1` (stereo not drawn), the Potency is reported as inconclusive: 31.6 µM [cytotoxic, single point].
In the case of `CCCCN(CC)CCCNC(=O)c1sc2nc(C)cc(C)c2c1-n1cccc1`, the Potency is reported as inconclusive: 2.51 µM [cytotoxic, partial curve, poor fit].
With `Cc1nn(-c2ccccc2)c(OC(=O)C(C)C)c1Sc1ccc(Cl)cc1` the Potency was inconclusive: 0.0126 µM [cytotoxic, full curve, poor fit].
In the case of `COc1ccccc1/C=C/c1nc2ccccc2n1C(C)C`, the Potency is reported as inconclusive: 14.1 µM [cytotoxic, partial curve].
In the case of `Cc1nnc(N2CCC(C(=O)NCCc3ccccc3Cl)CC2)c2nn(-c3ccccc3)c(C)c12`, the Potency is reported as active: 10 µM.
With `COc1ccc(/C=C/C(=O)NC(=S)NNC(=O)c2ccco2)cc1` the Potency was inconclusive: 10 µM [cytotoxic, partial curve].
With `Cc1cccc(N2CCN(C(=O)c3cccc(-n4c(C)nc5cccnc54)c3)CC2)c1C` the “activity, negative = cell killing” value was inactive: -6.21%.
In the case of `CCCCN(C)CCCNC(=O)c1cc(-c2ccc(Br)s2)nc2ccccc12`, the Potency is reported as inconclusive: 31.6 µM [cytotoxic, single point].
In the case of `Cc1ccc(C)c(Cn2c(-c3cccs3)nc3ccccc32)c1`, the activity, negative = cell killing is reported as inconclusive: -31% [cytotoxic].
For `O=C(COC(=O)c1cccs1)NCCC1=CCCCC1`, the Potency was inconclusive: 0.631 µM [cytotoxic, partial curve, poor fit].
For `Cc1cc2c(cc1S(=O)(=O)N1CCCCC1)OCC(=O)N2`, the Potency was inconclusive: 35.5 µM [cytotoxic, single point].
In the case of `Cc1ccc(-c2c(C)n3c4c(=O)n(C)c(=O)n(C)c4nc3n2CCO)cc1`, the “activity, negative = cell killing” value is reported as inactive: -3.8%.
With `CCCCN(CCCC)CCNC(=O)c1cn(CC)c2ccc(S(=O)(=O)N(C)C3CCCCC3)cc2c1=O` the Potency was inconclusive: 10 µM [cytotoxic, partial curve, poor fit].
For `Cc1ccc(-c2nnc(SCc3cccc(C#N)c3)o2)cc1`, the Potency was inconclusive: 1 µM [cytotoxic, full curve, poor fit].
In the case of `CC(C)(C)c1ccc(-c2nc(SCCCOc3ccccc3)n3[nH]c(=O)cc3n2)cc1`, the Potency is reported as inconclusive: 31.6 µM [cytotoxic, single point].
For `CC(C)c1cc(-c2nc(-c3ccccc3)no2)n[nH]1`, the Potency was inconclusive: 12.6 µM [cytotoxic, partial curve].
In the case of `CCCSCCCNC(=O)c1ccc2c(c1)nc1n2CCCCC1`, the Potency is reported as inconclusive: 10 µM [cytotoxic, partial curve].
In the case of `O=C(CSc1nc(-c2ccccc2)[nH]c1-c1ccccc1)Nc1ccc2c(c1)OCCO2`, the Potency is reported as inconclusive: 12.6 µM [cytotoxic, partial curve].
In the case of `CC12CCC(C(=O)N(CSC(=S)N/N=C\c3ccccc3O)C1=O)C2(C)C` (stereo not drawn), the Potency is reported as inconclusive: 4.47 µM [cytotoxic, partial curve, poor fit].
With `Cc1ccc(-n2ncc3c(NC4CCCCC4)ncnc32)cc1` the Potency was inconclusive: 35.5 µM [cytotoxic, single point].
With `O=C1COc2cc(S(=O)(=O)CCC(=O)N3CCN(c4cccc(Cl)c4)CC3)c(Cl)cc2N1` the Potency was inconclusive: 0.631 µM [cytotoxic, full curve, poor fit].
For `COc1ccc(Cl)cc1NC(=O)CN(c1cc(C)cc(C)c1)S(=O)(=O)c1c(C)n[nH]c1C`, the Potency was inconclusive: 10 µM [cytotoxic, partial curve].
In the case of `CCc1ccc(N2CCn3c2nc2c3c(=O)n(Cc3ccc(F)cc3)c(=O)n2C)cc1`, the Potency is reported as inconclusive: 11.2 µM [cytotoxic, partial curve].
In the case of `COc1ccc(Nc2cc(C)nc(-n3nc(C)cc3C)n2)cc1Cl`, the Potency is reported as inconclusive: 12.6 µM [cytotoxic, partial curve].
In the case of `Cc1cc(OCCCSc2nc(-c3ccc(C(C)(C)C)cc3)nc3cc(=O)[nH]n23)ccc1Cl`, the Potency is reported as inconclusive: 31.6 µM [cytotoxic, single point].
